The source gives many values for each of these; only a part stands here.
How the values were obtained:
Assay in all cases: concentration in plasma after dosing
[1] = test system: Rat; details: 40 min; dosed: dibromoacetic acid; 100 mg/kg; oral; Male; F344
[2] = test system: Rat; details: 40 min; dosed: dibromoacetic acid; 10 mg/kg; oral; Male; Harlan Sprague Dawley
[3] = test system: Rat; details: dosed: dibromoacetic acid, oral
[4] = test system: Rat; details: dosed: dibromoacetic acid, 40 mg/kg, oral, Female, Harlan Sprague Dawley
[5] = test system: Rat; details: dosed: dibromoacetic acid, 10 mg/kg, oral, Male, Harlan Sprague Dawley
[6] = test system: Rat; details: dosed: dibromoacetic acid, 100 mg/kg, oral, Male, F344
[7] = test system: Rat; details: dosed: dibromoacetic acid, 10 mg/kg, oral, Male, Harlan Sprague Dawley; remark: listed apart in the source
[8] = test system: Rat; details: dosed: dibromoacetic acid, 100 mg/kg, oral, Male, F344; remark: listed apart in the source
[9] = test system: Rat; details: 40 min; dosed: dibromoacetic acid; 40 mg/kg; oral; Female; Harlan Sprague Dawley
[10] = test system: Rat; details: dosed: dibromoacetic acid, 40 mg/kg, oral, Female, Harlan Sprague Dawley; remark: listed apart in the source
[11] = test system: Rat; details: dosed: dibromoacetic acid, 10 mg/kg, oral, Male, Harlan Sprague Dawley; remark: listed apart in the source
[12] = test system: Rat; details: 40 min; dosed: dibromoacetic acid; 40 mg/kg; oral; Female; Harlan Sprague Dawley; remark: listed apart in the source
[13] = test system: Rat; details: dosed: dibromoacetic acid, 100 mg/kg, oral, Male, F344; remark: listed apart in the source
[14] = test system: Rat; details: dosed: dibromoacetic acid, 10 mg/kg, oral, Male, Harlan Sprague Dawley; remark: listed apart in the source
[15] = test system: Rat; details: dosed: dibromoacetic acid, 100 mg/kg, oral, Male, F344; remark: listed apart in the source
[16] = test system: Rat; details: dosed: dibromoacetic acid, 100 mg/kg, oral, Male, F344; remark: listed apart in the source
[17] = test system: Rat; details: 20 min; dosed: dibromoacetic acid; 100 mg/kg; oral; Male; F344
[18] = test system: Rat; details: 6 h; dosed: dibromoacetic acid; 100 mg/kg; oral; Male; F344
[19] = test system: Rat; details: dosed: dibromoacetic acid, 40 mg/kg, oral, Female, Harlan Sprague Dawley; remark: listed apart in the source
[20] = test system: Rat; details: dosed: dibromoacetic acid, 40 mg/kg, oral, Female, Harlan Sprague Dawley; remark: listed apart in the source
[21] = test system: Rat; details: 1 h; dosed: dibromoacetic acid; 10 mg/kg; oral; Male; Harlan Sprague Dawley
[22] = test system: Rat; details: 4 h; dosed: dibromoacetic acid; 40 mg/kg; oral; Female; Harlan Sprague Dawley
[23] = test system: Rat; details: 2 h; dosed: dibromoacetic acid; 10 mg/kg; oral; Male; Harlan Sprague Dawley
[24] = test system: Rat; details: dosed: dibromoacetic acid, 100 mg/kg, oral, Male, F344; remark: listed apart in the source
[25] = test system: Rat; details: dosed: dibromoacetic acid, 10 mg/kg, oral, Male, Harlan Sprague Dawley; remark: listed apart in the source
[26] = test system: Rat; details: dosed: dibromoacetic acid, 40 mg/kg, oral, Female, Harlan Sprague Dawley; remark: listed apart in the source
[27] = test system: Rat; details: 40 min; dosed: dibromoacetic acid; 10 mg/kg; oral; Male; Harlan Sprague Dawley; remark: listed apart in the source
[28] = test system: Rat; details: 20 min; dosed: dibromoacetic acid; 40 mg/kg; oral; Female; Harlan Sprague Dawley
[29] = test system: Rat; details: dosed: dibromoacetic acid, 40 mg/kg, oral, Female, Harlan Sprague Dawley; remark: listed apart in the source
[30] = test system: Rat; details: dosed: dibromoacetic acid, 40 mg/kg, oral, Female, Harlan Sprague Dawley; remark: listed apart in the source
[31] = test system: Rat; details: 2 h; dosed: dibromoacetic acid; 10 mg/kg; oral; Male; Harlan Sprague Dawley; remark: listed apart in the source
[32] = test system: Rat; details: 40 min; dosed: dibromoacetic acid; 100 mg/kg; oral; Male; F344; remark: listed apart in the source
[33] = test system: Rat; details: dosed: dibromoacetic acid, 100 mg/kg, oral, Male, F344; remark: listed apart in the source

O=C(O)C(Br)Br [dibromoacetic acid]
Details	concentration in plasma [µg/mL]
[1]	114
[2]	1.6
[9]	23.1
[12]	20.4
[17]	86.3
[18]	0.722
[21]	1.79
[22]	0.542
[23]	0.481
[27]	23.4
[28]	33.5
[31]	0.553
[32]	87.3

[3]
Details	concentration in plasma [µg/mL]
1 h, 10 mg/kg, Male, Harlan Sprague Dawley	1.53
1 h, 40 mg/kg, Female, Harlan Sprague Dawley	9.8
1.25 h, 100 mg/kg, Male, F344	35.4
2 h, 10 mg/kg, Male, Harlan Sprague Dawley	0.951
2 h, 40 mg/kg, Female, Harlan Sprague Dawley	6.53
2 h, 100 mg/kg, Male, F344	28.5
2 min, 10 mg/kg, Male, Harlan Sprague Dawley	0.143
2 min, 40 mg/kg, Female, Harlan Sprague Dawley	0.694
2 min, 100 mg/kg, Male, F344	16.2
3 h, 10 mg/kg, Male, Harlan Sprague Dawley	0.418
3 h, 40 mg/kg, Female, Harlan Sprague Dawley	1.06
4 h, 40 mg/kg, Female, Harlan Sprague Dawley	0.364
4 h, 100 mg/kg, Male, F344	8.3
5 min, 10 mg/kg, Male, Harlan Sprague Dawley	0.192
5 min, 40 mg/kg, Female, Harlan Sprague Dawley	1.57
5 min, 100 mg/kg, Male, F344	8.29
6 h, 100 mg/kg, Male, F344	3.58
10 min, 10 mg/kg, Male, Harlan Sprague Dawley	0.59
10 min, 40 mg/kg, Female, Harlan Sprague Dawley	21.1
10 min, 100 mg/kg, Male, F344	36.6
20 min, 10 mg/kg, Male, Harlan Sprague Dawley	3.87
20 min, 40 mg/kg, Female, Harlan Sprague Dawley	37.4
20 min, 100 mg/kg, Male, F344	78.5
40 min, 10 mg/kg, Male, Harlan Sprague Dawley	1.22
40 min, 40 mg/kg, Female, Harlan Sprague Dawley	24.8
40 min, 100 mg/kg, Male, F344	111

Details	concentration in plasma [µg/mL]
[4], 3 h	1.17
[4], 10 min	16
[5], 4 h	0.194
[5], 20 min	1.39
[6], 1.25 h	40.9
[6], 2 min	7.32
[7], 3 h	0.187
[7], 10 min	0.813
[8], 1.25 h	44.5
[8], 2 min	11.1
[10], 2 h	4.04
[10], 5 min	6.12
[11], 1 h	1.55
[11], 2 min	0.144
[13], 2 h	26.6
[13], 5 min	14.9
[14], 4 h	0.115
[14], 20 min	2.47
[15], 6 h	3.19
[15], 20 min	82.3
[16], 4 h	7.65
[16], 10 min	32
[19], 2 h	4.51
[19], 5 min	3.01
[20], 1 h	21.4
[20], 2 min	0.148
[24], 4 h	5.75
[24], 10 min	52.2
[25], 3 h	0.106
[25], 10 min	0.393
[26], 1 h	12.4
[26], 2 min	1.03
[29], 4 h	0.561
[29], 20 min	38.7
[30], 3 h	1.42
[30], 10 min	17.6
[33], 2 h	30.1
[33], 5 min	10.8

Reference: EPA's CvTdb concentration-time database
